Assay results from the supplement of paper PMC10369915.
Some of the results follow. No stated cut-off is given here; in the data, active = 3.2 or more and inactive = the rest. Most of these values are background signal.

Assays:
Assay in all cases: enrichment score (SH2-bound / input frequency) (ratio); bacterial display of known human phosphotyrosine sites (pTyr-Var adds point mutants) read by sequencing; higher = stronger binding; tyrosines were phosphorylated by kinases first
Conditions in all cases: peptide library: pTyr-Var
SHP2 C-SH2 domain E139D = target: SHP2 C-SH2 domain E139D
[1] = target: SHP2 C-SH2 domain wild-type
SHP2 N-SH2 domain L43F = target: SHP2 N-SH2 domain L43F
SHP2 N-SH2 domain T42A = target: SHP2 N-SH2 domain T42A
SHP2 N-SH2 domain T52S = target: SHP2 N-SH2 domain T52S
[2] = target: SHP2 N-SH2 domain wild-type
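Further: displayed peptides selected on beads carrying the immobilized SH2 domain, with library peptides lacking any tyrosine serving as negative controls.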

Binder	enrichment score (SHP2 C-SH2 domain E139D)	enrichment score [1]	enrichment score (SHP2 N-SH2 domain L43F)	enrichment score (SHP2 N-SH2 domain T42A)	enrichment score (SHP2 N-SH2 domain T52S)	enrichment score [2]
IPVNGYQPVPA [ROR2_Y824_V819I]	inactive: 0.59	inactive: 0.662	inactive: 0.789	inactive: 0.661	inactive: 0.778	inactive: 0.489
LGSWTYTKTVS [ROS1_Y144]	inactive: 0.912	inactive: 0.754	inactive: 0.994	inactive: 0.809	inactive: 0.757	inactive: 0.81
TVFENYVADIE [RHOA_Y42]	inactive: 0.815	inactive: 0.709	inactive: 0.572	inactive: 0.649	inactive: 0.726	inactive: 0.741
KWHREYNFKFV [RICTOR_Y835_S837F_YF]	inactive: 2.52	inactive: 2.49	inactive: 2.48	inactive: 2.05	inactive: 2.41	inactive: 2.53
LTRDIYKNDYY [ROS1_Y2110_A2106T]	inactive: 0.87	inactive: 0.926	inactive: 1.14	inactive: 0.979	inactive: 1.11	inactive: 1.12
LAIERYVVVSK [RHO_Y136_C140S]	inactive: 0.869	inactive: 0.67	inactive: 1.82	inactive: 0.978	inactive: 0.669	inactive: 0.483
REVVNYVQKRN [RMI1_Y450]	inactive: 0.816	inactive: 0.781	inactive: 0.726	inactive: 0.615	inactive: 0.866	inactive: 0.766
EQPNPYMVLDI [ROCK2_Y1197_S1194P]	inactive: 0.574	inactive: 0.511	inactive: 0.631	inactive: 1.44	inactive: 0.783	inactive: 0.722
RFGKVYKAHLF [ROR2_Y488_G490A]	inactive: 0.8	inactive: 0.881	inactive: 0.935	inactive: 0.469	inactive: 0.843	inactive: 0.831
LEAVSYSSPYA [RNLS_Y190_R193P]	inactive: 0.731	inactive: 1.31	inactive: 1.15	inactive: 1.88	inactive: 1.2	inactive: 0.742
RNVLVYDKLNV [ROR2_Y624]	inactive: 0.834	inactive: 0.783	inactive: 0.799	inactive: 0.7	inactive: 0.605	inactive: 0.723
ESAAIYNPVIY [RHO_Y301_K296E]	inactive: 1	inactive: 0.924	inactive: 0.803	inactive: 0.568	inactive: 0.853	inactive: 0.805
KWHREYNSKFV [RICTOR_Y835_YF]	inactive: 1.72	inactive: 1.59	inactive: 1.52	inactive: 1.4	inactive: 1.55	inactive: 1.46
GLTSTYAGIRK [ROBO1_Y932]	inactive: 1.24	inactive: 3.1	inactive: 0.603	inactive: 0.669	inactive: 0.662	inactive: 0.605
RFGKVYKGHLF [ROR2_Y488]	inactive: 0.608	inactive: 0.64	inactive: 0.84	inactive: 0.545	inactive: 0.598	inactive: 0.71
PAIERYVVVCK [RHO_Y136_L131P]	inactive: 0.684	inactive: 0.932	inactive: 0.673	inactive: 0.745	inactive: 0.843	inactive: 1.21
YKEQGYHRLPP [RIN1_Y681]	inactive: 1.03	inactive: 0.803	inactive: 0.725	inactive: 0.689	inactive: 0.753	inactive: 0.989
FAADFYKLLGN [ROR2_Y646_YF]	inactive: 0.58	inactive: 0.595	inactive: 0.579	inactive: 0.481	inactive: 0.563	inactive: 0.863
REVVNYVQKRS [RMI1_Y450_N455S]	inactive: 0.556	inactive: 1.01	inactive: 0.839	inactive: 0.627	inactive: 0.756	inactive: 1.12

Binder	enrichment score (SHP2 C-SH2 domain E139D)	enrichment score [1]	enrichment score (SHP2 N-SH2 domain L43F)	enrichment score (SHP2 N-SH2 domain T42A)	enrichment score (SHP2 N-SH2 domain T52S)	enrichment score [2]
LAIEWYVVVCK [RHO_Y136_R135W]	inactive: 0.286	inactive: 0.596	inactive: 0.495	inactive: 0.666	inactive: 0.532	inactive: 1.04
LTRDIYKNDFF [ROS1_Y2110_A2106T_YF]	inactive: 0.909	inactive: 0.728	inactive: 0.91	inactive: 1.03	inactive: 0.735	inactive: 0.935
KRAAIYNPVIF [RHO_Y301_S297R_YF]	inactive: 1.15	inactive: 1.15	inactive: 1.32	inactive: 2.33	inactive: 1.13	inactive: 1.01
LEAVSYSSRFA [RNLS_Y190_YF]	inactive: 0.767	inactive: 0.788	inactive: 0.77	inactive: 0.648	inactive: 0.727	inactive: 0.759
LEITWYPFDVE [RIPOR2_Y316]	inactive: 1.21	inactive: 1.7	inactive: 1.29	inactive: 1.34	inactive: 1.1	inactive: 1.53
YKEQGYHRLPS [RIN1_Y681_P686S]	inactive: 0.875	inactive: 0.777	inactive: 0.81	inactive: 0.584	inactive: 0.757	inactive: 0.741
RNYDTYTAGLS [RHBDD1_Y264]	inactive: 0.5	inactive: 0.61	inactive: 0.582	inactive: 0.463	inactive: 0.539	inactive: 0.585
SHTPSYCDEWL [RITA1_Y109_S113W]	inactive: 0.858	inactive: 0.859	inactive: 0.913	inactive: 0.868	inactive: 0.711	inactive: 1.01
EKAEVYGSENE [RIOK2_Y348]	inactive: 0.334	inactive: 0.511	inactive: 0.561	inactive: 0.462	inactive: 0.405	inactive: 0.348
RNYGTYTAGLS [RHBDD1_Y264_D262G]	inactive: 0.615	inactive: 0.547	inactive: 0.546	inactive: 0.674	inactive: 0.647	inactive: 0.87
KLLLKYSFHDV [RNF213_Y4141]	inactive: 2.3	inactive: 2	inactive: 1.99	inactive: 1.78	inactive: 2.11	inactive: 2.29
LARDIYKNDYY [ROS1_Y2110]	inactive: 1.08	inactive: 1.22	inactive: 0.766	inactive: 1	inactive: 1.1	inactive: 1.1
QDKDLYPCPGT [RLF_Y671_R668K]	inactive: 0.657	inactive: 0.689	inactive: 0.695	inactive: 0.617	inactive: 0.519	inactive: 1.07
GGDAVYTNGTI [RFX2_Y82_A86T]	inactive: 0.777	inactive: 0.848	inactive: 0.811	inactive: 0.665	inactive: 0.636	inactive: 1.09
LARDIYKNDFF [ROS1_Y2110_YF]	inactive: 0.891	inactive: 0.776	inactive: 1.13	inactive: 1.15	inactive: 0.716	inactive: 0.877
DLDTEYGSGYP [RNASEH2A_Y206_D205E]	inactive: 0.56	inactive: 0.659	inactive: 0.646	inactive: 0.597	inactive: 0.569	inactive: 0.672
DYGSGYPNDPK [RNASEH2A_Y210]	inactive: 0.602	inactive: 0.591	inactive: 0.694	inactive: 0.473	inactive: 0.841	inactive: 0.73
LEAVSYSSPFA [RNLS_Y190_R193P_YF]	inactive: 0.736	inactive: 1.43	inactive: 2.3	active: 3.92	inactive: 2.78	inactive: 0.726
